Consider 18 compounds from patent US11161864B2, “Sting agonists” (Venenum Biodesign, LLC, priority 2018, dated 2021).

For assay [1], the system named is STING pathway, RAW-Dual Reporter cell line. As to the kind of experiment: cells.
The target in assay [2] is HAQ STING protein, THP1 Dual (HAQ) human cells (Homo sapiens (Human), UniProt Q86WV6, G230A/H232R/R293Q/R71H). Description: cell-based. The settings on record: for pEC50: Human HAQ Agonist EC50, 5 hrs; for Emax: THP1-Dual, 5 h.
For assay [3], the target named is wildtype (WT) STING protein, THP1 Dual (WT) human cells (Homo sapiens (Human), UniProt Q86WV6, H232R). As to the kind of experiment: cell-based. As to conditions: for pEC50: Human WT Agonist EC50, 5 hrs; for Emax: THP1-Dual, 5 h.
[4] abbreviates: Mus musculus, 5 h, read-out: Murine Agonist EC50, 5 hrs.
Where [5] appears, read: Mus musculus, 5 h, read-out: Murine Agonist Efficacy, 5 hrs.
Setting [6] is: read-out: Murine Agonist EC50, 5 hrs.
The mark [7] stands for this setting: read-out: Human HAQ Agonist Efficacy, 5 hrs.
Setting [8] is: read-out: Human WT Agonist Efficacy, 5 hrs.

pEC50: −log10 of the molar value. Read-outs that look alike come from different tables or passages of the source.

HAQ STING protein, THP1 Dual (HAQ) human cells, sequence (Q86WV6 whole entry R71H/G230A/H232R/R293Q): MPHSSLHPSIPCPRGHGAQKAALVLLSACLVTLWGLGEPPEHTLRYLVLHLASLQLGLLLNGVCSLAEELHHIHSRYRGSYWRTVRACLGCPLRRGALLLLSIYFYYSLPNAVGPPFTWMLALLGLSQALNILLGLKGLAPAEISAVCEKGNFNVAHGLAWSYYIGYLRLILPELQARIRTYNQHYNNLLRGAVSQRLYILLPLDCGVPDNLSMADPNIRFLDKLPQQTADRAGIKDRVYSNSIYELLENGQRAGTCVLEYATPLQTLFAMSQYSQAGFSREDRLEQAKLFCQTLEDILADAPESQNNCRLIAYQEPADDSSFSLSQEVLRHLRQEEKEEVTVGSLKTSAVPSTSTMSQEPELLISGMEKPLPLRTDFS
wildtype (WT) STING protein, THP1 Dual (WT) human cells, sequence (Q86WV6 whole entry H232R): as the sequence (Q86WV6 whole entry R71H/G230A/H232R/R293Q) above, with H71R, A230G, Q293R counted along it

For the compound `C[C@H]1COP(=O)(S)OC[C@H]2O[C@@H](n3cnc4c(=O)[nH]c(N)nc43)[C@H](OP(=O)(S)OCc3nc4cncnc4n31)[C@@H]2F` (single isomer, unassigned) [Example 20D], the figures for the negative-log EC50 (pEC50) in assay [1] (setting [4]), in assay [2] and in assay [3] were 4.00 to 5.00, 4.00 to 5.00 and 3.00 to 4.00, respectively.

In the case of `Nc1nc2c(ncn2[C@@H]2O[C@@H]3COP(=O)(S)OCCn4c(nc5cncnc54)COP(=O)(S)O[C@@H]2C3)c(=O)[nH]1` (single isomer, unassigned) [Example 22B], the Emax in assay [1] (setting [5]), in assay [2] (setting [7]) and in assay [3] (setting [8]) was under 100% throughout. Further, the pEC50 – broadly, the EC50 on a negative log10 scale, so that one unit is a factor of ten – in assay [1] (setting [6]) was 4.00 to 5.00.

Consider `Nc1nc2c(nnn2[C@@H]2O[C@@H]3COP(=O)(S)OCCn4c(nc5cncnc54)COP(=O)(S)O[C@@H]2[C@@H]3F)c(=O)[nH]1` (single isomer, unassigned) [Example 24B], for which the Emax in assay [1] (setting [5]), in assay [2] (setting [7]) and in assay [3] (setting [8]) was under 100% in each case. In addition, the pEC50 in assay [1] (setting [6]) is 4.00 to 5.00.

Take `Nc1nc2c(ncn2[C@@H]2O[C@@H]3COP(=O)(S)OCCn4c(nc5cncnc54)COP(=O)(S)O[C@@H]2[C@H]3F)c(=O)[nH]1` (single isomer, unassigned) [Example 25B]: the pEC50 in assay [1] (setting [6]), in assay [2] and in assay [3] was 3.00 to 4.00 throughout.

As for `Nc1nc2c(ncn2[C@@H]2O[C@@H]3COP(=O)(S)OCCn4c(nc5cncnc54)COP(=O)(S)O[C@@H]2[C@H]3F)c(=O)[nH]1` (single isomer, unassigned) [Example 25C], the pEC50 in assay [1] (setting [6]) was 4.00 to 5.00; in assay [2] it was over 5.00; in assay [3], 3.00 to 4.00.

In the case of `Nc1nc2c(ncn2[C@@H]2O[C@@H]3COP(=O)(S)OCCn4c(nc5cncnc54)COP(=O)(S)O[C@@H]2[C@H]3F)c(=O)[nH]1` (single isomer, unassigned) [Example 25D], the Emax in assay [1] (setting [5]) is over 100%; in assay [2] (setting [7]), under 100%; in assay [3] (setting [8]) it was over 100%. The pEC50 in assay [1] (setting [6]), in assay [2] and in assay [3] was over 5.00 each time.

On to `CO[C@H]1[C@H]2OP(=O)(S)OCc3nc4cncnc4n3CCOP(=O)(S)OC[C@H]1O[C@H]2n1cnc2c(=O)[nH]c(N)nc21` (single isomer, unassigned) [Example 27B], for which the pEC50 in assay [1] (setting [4]) was 4.00 to 5.00; in assay [2], over 5.00; in assay [3] it was 3.00 to 4.00.

As for `Nc1nc2c(ncn2[C@@H]2O[C@@H]3COP(=O)(S)OCCn4nc(-c5ccncc5)nc4COP(=O)(S)O[C@@H]2[C@@H]3F)c(=O)[nH]1` (single isomer, unassigned) [Example 34B], the Emax in assay [1] (setting [5]), in assay [2] (setting [7]) and in assay [3] (setting [8]) was under 100% throughout. In addition, the negative-log EC50 (pEC50) in assay [1] (setting [6]) was 3.00 to 4.00.

For `N#Cc1cnc2c(c1)nc1n2CCOP(=O)(S)OC[C@H]2O[C@@H](n3cnc4c(=O)[nH]c(N)nc43)[C@H](OP(=O)(S)OC1)[C@@H]2F` (single isomer, unassigned) [Example 38A], the pEC50 in assay [1] (Mus musculus, 5 h, read-out: Murine Agonist EC50) is over 5.00. Further, the Emax was over 100% in assay [1] (Mus musculus, 5 h, read-out: Murine Agonist Efficacy); over 100% in assay [2] (read-out: Human HAQ Agonist Efficacy); under 100% in assay [3] (read-out: Human WT Agonist Efficacy).

For the compound `Nc1nc2c(ncn2[C@@H]2O[C@@H]3COP(=O)(S)OCCn4c(nc5c(=O)[nH]cnc54)COP(=O)(S)O[C@@H]2[C@@H]3F)c(=O)[nH]1` (stereo partly drawn) [Example 3C, (1S,21R,23R,24R)-23-(2-Amino-6-oxo-6,9-dihydro-1H-purin-9-yl)-24-fluoro-3,18-disulfanyl-2,4,17,19,22-pentaoxa-7,10,12,14-tetraaza-3lambda5,18lambda5-diphosphatetracyclo[19.2.1.06,14.08,13]tetracosa-6,8(13),11-triene-3,9,18-trione], the results for the Emax in assay [1] (setting [5]), in assay [2] (setting [7]) and in assay [3] (setting [8]) were over 100%, under 100% and under 100%, respectively.

Turning to `Nc1nc2c(ncn2[C@@H]2O[C@@H]3COP(=O)(O)OCCn4c(nc5cncnc54)COP(=O)(O)O[C@@H]2[C@@H]3F)c(=O)[nH]1` [Example 4, (1S,21R,23R,24R)-23-(2-Amino-6-oxo-6,9-dihydro-1H-purin-9-yl)-24-fluoro-3,18-dihydroxy-2,4,17,19,22-pentaoxa-7,10,12,14-tetraaza-3lambda5,18lambda5-diphosphatetracyclo[19.2.1.06,14.08,13]tetracosa-6,8(13),9,11-tetraene-3,18-dione], the pEC50 in assay [1] (setting [4]) was 4.00 to 5.00; in assay [2] it was 4.00 to 5.00; in assay [3], 3.00 to 4.00. The Emax in assay [1] (setting [5]) was over 200%; in assay [2] (setting [7]), under 100%; in assay [3] (setting [8]), over 100%.

In the case of `Nc1nc2c(ncn2[C@@H]2O[C@@H]3COP(=O)(O)OCCn4c(nc5cncnc54)COP(=O)(S)O[C@@H]2[C@@H]3F)c(=O)[nH]1` (stereo partly drawn) [Example 5A, (1S,21R,23R,24R)-23-(2-Amino-6-oxo-6,9-dihydro-1H-purin-9-yl)-24-fluoro-18-hydroxy-3-sulfanyl-2,4,17,19,22-pentaoxa-7,10,12,14-tetraaza-3lambda5,18lambda5-diphosphatetracyclo[19.2.1.06,14.08,13]tetracosa-6,8(13),9,11-tetraene-3,18-dione], the Emax in assay [1] (setting [5]) is over 100%; in assay [2] (setting [7]) it was under 100%; in assay [3] (setting [8]), under 100%.

Turning to `Nc1nc2c(ncn2[C@@H]2O[C@@H]3COP(=O)(S)OCCn4c(nc5cncnc54)COP(=O)(O)O[C@@H]2[C@@H]3F)c(=O)[nH]1` (stereo partly drawn) [Example 6A, (1S,21R,23R,24R)-23-(2-Amino-6-oxo-6,9-dihydro-1H-purin-9-yl)-24-fluoro-3-hydroxy-18-sulfanyl-2,4,17,19,22-pentaoxa-7,10,12,14-tetraaza-3lambda5,18lambda5-diphosphatetracyclo[19.2.1.06,14.08,13]tetracosa-6,8(13),9,11-tetraene-3,18-dione], the Emax in assay [1] (setting [5]) was over 100%; in assay [2] (setting [7]), under 100%; in assay [3] (setting [8]), under 100%.

With `Nc1nc2c(ncn2[C@@H]2O[C@@H]3COP(=O)(S)OCCn4c(nc5c(N)ncnc54)COP(=O)(S)O[C@@H]2[C@@H]3F)c(=O)[nH]1` (stereo partly drawn) [Example 7A, (1S,21R,23R,24R)-9-Amino-23-(2-ammo-6-oxo-6,9-dihydro-1H-purin-9-yl)-24-fluoro-3,18-disulfanyl-2,4,17,19,22-pentaoxa-7,10,12,14-tetraaza-3lambda5,18lambda5-diphosphatetracyclo[19.2.1.06,14.08,13]tetracosa-6,8(13),9,11-tetraene-3,18-dione], the Emax in assay [1] (setting [5]) is over 100%; in assay [2] (setting [7]) it was over 100%; in assay [3] (setting [8]), under 100%.

For `Nc1ncnc2c1ncn2[C@@H]1O[C@@H]2COP(=O)(S)OCCn3c(nc4cncnc43)COP(=O)(S)O[C@@H]1[C@@H]2O` (stereo partly drawn) [Example 8, (1R,21R,23R,24R)-23-(6-Amino-9H-purin-9-yl)-24-hydroxy-3,18-disulfanyl-2,4,17,19,22-pentaoxa-7,10,12,14-tetraaza-3lambda5,18lambda5-diphosphatetracyclo[19.2.1.06,14.08,13]tetracosa-6,8(13),9,11-tetraene-3,18-dione], the negative logarithm of the EC50 (pEC50) was 3.00 to 4.00 in assay [1] (setting [4]), 4.00 to 5.00 in assay [2] and 3.00 to 4.00 in assay [3]. Also, the Emax in assay [1] (setting [5]), in assay [2] (setting [7]) and in assay [3] (setting [8]) was under 100% throughout.

Take `Nc1nc2c(ncn2[C@@H]2O[C@@H]3COP(=O)(S)OCCCn4c(nc5cncnc54)COP(=O)(S)O[C@@H]2[C@@H]3O)c(=O)[nH]1` (stereo partly drawn) [Example 9, (1R,22R,24R,25R)-24-(2-Amino-6-oxo-6,9-dihydro-1H-purin-9-yl)-25-hydroxy-3,19-disulfanyl-2,4,18,20,23-pentaoxa-7,10,12,14-tetraaza-3lambda5,19lambda5-diphosphatetracyclo[20.2.1.06,14.08,13]pentacosa-6,8,10,12-tetraene-3,19-dione]: the pEC50 in assay [1] (setting [4]) was 4.00 to 5.00; in assay [2], 4.00 to 5.00; in assay [3], 3.00 to 4.00. The Emax was under 100% in assay [1] (setting [5]), over 100% in assay [2] (setting [7]) and under 100% in assay [3] (setting [8]).

In the case of `Nc1nc2c(ncn2[C@@H]2O[C@@H]3COP(=O)(O)OCCn4c(nc5cncnc54)COP(=O)(O)O[C@@H]2[C@@H]3O)c(=O)[nH]1` [Example 10, (1R,21R,23R,24R)-23-(2-Amino-6-oxo-6,9-dihydro-1H-purin-9-yl)-3,18,24-trihydroxy-2,4,17,19,22-pentaoxa-7,10,12,14-tetraaza-3lambda5,18lambda5-diphosphatetracyclo[19.2.1.06,14.08,13]tetracosa-6,8,10,12-tetraene-3,18-dione], the pEC50 in assay [1] (setting [4]) was 4.00 to 5.00; in assay [2], 4.00 to 5.00; in assay [3] it was 3.00 to 4.00. Besides, the Emax was over 100% in assay [1] (setting [5]), over 200% in assay [2] (setting [7]) and under 100% in assay [3] (setting [8]).

With `Nc1nc2c(ncn2[C@@H]2O[C@@H]3COP(=O)(S)OCCn4c(nc5cnc(C6CC6)nc54)COP(=O)(S)O[C@@H]2[C@@H]3F)c(=O)[nH]1` (stereo partly drawn) [Example 12D, (1S,21R,23R,24R)-23-(2-Amino-6-oxo-6,9-dihydro-1H-purin-9-yl)-11-cyclopropyl-24-fluoro-3,18-disulfanyl-2,4,17,19,22-pentaoxa-7,10,12,14-tetraaza-3lambda5,18lambda5-diphosphatetracyclo[19.2.1.06,14.08,13]tetracosa-6,8,10,12-tetraene-3,18-dione], the Emax was over 100% in assay [1] (setting [5]), under 100% in assay [2] (setting [7]) and under 100% in assay [3] (setting [8]).
